The source of these data is publication PMC5679597.

Results are given in words; binding and its absence hold for the method and conditions named. Binding seen in cells or lysates may run through a third protein. Some entries that bind do so weakly or less than the wild type. Sequences can lack the tags named with a protein.

Common to all, as to assay: pull-down; GFP pull-down: GFP-tagged LNX constructs transfected into HEK 293 cells (HEK 293T in Fig 3A) alone or with the partner, captured on GFP-Trap_M beads, western blot; NaCl in the wash up to 500 mM in some cases
In general terms: Immunoblotting shows a protein as a band on a membrane.

Test [1] deals with T1, GFP-LNX1 RING-NPAY motif fragment (aa1-277) (mouse) (UniProt O70263).
T1 sequence: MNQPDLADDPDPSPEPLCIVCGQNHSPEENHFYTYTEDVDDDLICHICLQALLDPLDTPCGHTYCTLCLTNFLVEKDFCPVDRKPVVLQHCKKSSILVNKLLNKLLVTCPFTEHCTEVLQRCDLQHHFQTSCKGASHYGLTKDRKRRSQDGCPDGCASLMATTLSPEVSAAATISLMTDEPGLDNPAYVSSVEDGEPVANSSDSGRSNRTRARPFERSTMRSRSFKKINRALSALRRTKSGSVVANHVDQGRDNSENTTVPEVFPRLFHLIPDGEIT

The target in test [2] is T2, GFP-LNX1 PDZ1-4 fragment (aa268-728) (mouse) (UniProt O70263).
T2 sequence: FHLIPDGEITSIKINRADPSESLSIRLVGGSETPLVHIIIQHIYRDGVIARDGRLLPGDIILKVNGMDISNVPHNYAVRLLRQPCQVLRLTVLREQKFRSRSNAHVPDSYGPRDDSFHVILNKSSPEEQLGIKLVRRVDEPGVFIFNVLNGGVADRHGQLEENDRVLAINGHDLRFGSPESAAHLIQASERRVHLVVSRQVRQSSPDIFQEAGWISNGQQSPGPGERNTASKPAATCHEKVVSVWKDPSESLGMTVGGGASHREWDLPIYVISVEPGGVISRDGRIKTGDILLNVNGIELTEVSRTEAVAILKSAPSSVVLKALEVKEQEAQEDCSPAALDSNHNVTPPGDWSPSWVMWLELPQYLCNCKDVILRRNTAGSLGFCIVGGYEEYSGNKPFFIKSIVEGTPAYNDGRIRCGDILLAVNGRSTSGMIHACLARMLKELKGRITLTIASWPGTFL

For test [3], the target named is T3, GFP-tagged LNX1p80 (Ligand of Numb protein X1, p80 isoform) (mouse) (UniProt O70263).
T3 sequence: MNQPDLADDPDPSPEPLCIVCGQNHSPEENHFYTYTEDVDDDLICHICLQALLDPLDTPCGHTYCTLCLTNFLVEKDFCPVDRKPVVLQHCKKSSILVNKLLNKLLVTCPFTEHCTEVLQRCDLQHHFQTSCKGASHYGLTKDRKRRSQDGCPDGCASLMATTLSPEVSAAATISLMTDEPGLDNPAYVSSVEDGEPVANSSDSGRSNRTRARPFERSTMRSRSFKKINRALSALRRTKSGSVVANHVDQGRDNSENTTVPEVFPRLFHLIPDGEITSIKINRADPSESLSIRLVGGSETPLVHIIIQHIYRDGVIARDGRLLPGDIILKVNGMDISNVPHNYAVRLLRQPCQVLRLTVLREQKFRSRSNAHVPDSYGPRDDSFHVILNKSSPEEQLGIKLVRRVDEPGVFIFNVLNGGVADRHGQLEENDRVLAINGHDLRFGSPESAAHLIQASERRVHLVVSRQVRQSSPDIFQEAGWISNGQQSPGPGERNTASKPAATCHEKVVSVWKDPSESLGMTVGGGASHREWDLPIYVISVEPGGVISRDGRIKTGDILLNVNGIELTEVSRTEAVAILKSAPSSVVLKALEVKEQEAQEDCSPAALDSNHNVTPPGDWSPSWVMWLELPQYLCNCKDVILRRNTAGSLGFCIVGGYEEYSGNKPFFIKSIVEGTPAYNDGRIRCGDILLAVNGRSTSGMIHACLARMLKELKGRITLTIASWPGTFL

Test [4] addresses T4, GFP-LNX1 PDZ2 (aa377-470) (mouse) (UniProt O70263).
T4 sequence: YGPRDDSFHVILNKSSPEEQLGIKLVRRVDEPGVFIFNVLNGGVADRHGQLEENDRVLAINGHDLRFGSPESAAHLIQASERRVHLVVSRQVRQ

Another test deals with T5, GFP-tagged LNX2 (mouse) (UniProt Q91XL2).
T5 sequence: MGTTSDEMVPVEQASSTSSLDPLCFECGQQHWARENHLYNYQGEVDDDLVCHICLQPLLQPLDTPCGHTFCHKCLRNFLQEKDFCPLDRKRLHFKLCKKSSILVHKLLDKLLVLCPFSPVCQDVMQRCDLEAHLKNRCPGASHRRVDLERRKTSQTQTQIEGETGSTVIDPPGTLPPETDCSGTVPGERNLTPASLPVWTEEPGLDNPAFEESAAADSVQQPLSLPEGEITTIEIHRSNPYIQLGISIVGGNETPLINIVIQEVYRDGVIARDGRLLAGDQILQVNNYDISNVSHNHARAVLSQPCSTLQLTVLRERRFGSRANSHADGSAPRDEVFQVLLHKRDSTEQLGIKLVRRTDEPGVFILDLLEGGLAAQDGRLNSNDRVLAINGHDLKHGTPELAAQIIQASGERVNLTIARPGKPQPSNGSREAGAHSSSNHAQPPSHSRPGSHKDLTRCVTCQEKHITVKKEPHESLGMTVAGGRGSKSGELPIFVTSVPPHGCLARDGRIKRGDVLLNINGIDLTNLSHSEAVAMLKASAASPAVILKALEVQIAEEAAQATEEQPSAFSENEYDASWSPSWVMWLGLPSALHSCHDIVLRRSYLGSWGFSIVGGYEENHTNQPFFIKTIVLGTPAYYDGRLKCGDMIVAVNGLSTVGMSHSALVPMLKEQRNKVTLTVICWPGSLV

Test [5] concerns the target T6, GFP-LNX1 PDZ4 (aa630-725) (mouse) (UniProt O70263).
T6 sequence: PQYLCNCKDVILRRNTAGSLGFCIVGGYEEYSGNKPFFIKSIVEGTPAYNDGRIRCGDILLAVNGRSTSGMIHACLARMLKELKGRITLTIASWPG

B1: Protein numb homolog, endogenous (protein, UniProt P49757 1-651)
chain: MNKLRQSFRRKKDVYVPEASRPHQWQTDEEGVRTGKCSFPVKYLGHVEVDESRGMHICEDAVKRLKAERKFFKGFFGKTGKKAVKAVLWVSADGLRVVDEKTKDLIVDQTIEKVSFCAPDRNFDRAFSYICRDGTTRRWICHCFMAVKDTGERLSHAVGCAFAACLERKQKREKECGVTATFDASRTTFTREGSFRVTTATEQAEREEIMKQMQDAKKAETDKIVVGSSVAPGNTAPSPSSPTSPTSDATTSLEMNNPHAIPRRHAPIEQLARQGSFRGFPALSQKMSPFKRQLSLRINELPSTMQRKTDFPIKNAVPEVEGEAESISSLCSQITNAFSTPEDPFSSAPMTKPVTVVAPQSPTFQANGTDSAFHVLAKPAHTALAPVAMPVRETNPWAHAPDAANKEIAATCSGTEWGQSSGAASPGLFQAGHRRTPSEADRWLEEVSKSVRAQQPQASAAPLQPVLQPPPPTAISQPASPFQGNAFLTSQPVPVGVVPALQPAFVPAQSYPVANGMPYPAPNVPVVGITPSQMVANVFGTAGHPQAAHPHQSPSLVRQQTFPHYEASSATTSPFFKPPAQHLNGSAAFNGVDDGRLASADRHTEVPTGTCPVDPFEAQWAALENKSKQRTNPSPTNPFSSDLQKTFEIEL
As for B1, the binding entry in test [1] is on record as “binds”.

B2: KLHL11, transfected, HA or GST epitope-tagged (Fig 1B) (protein, UniProt Q9NVR0 16-708)
chain: ASLQVLEMESMETAAAGSAGLAAEVRGSGTVDFGPGPGISAMEASGGDPGPEAEDFECSSHCSELSWRQNEQRRQGLFCDITLCFGGAGGREFRAHRSVLAAATEYFTPLLSGQFSESRSGRVEMRKWSSEPGPEPDTVEAVIEYMYTGRIRVSTGSVHEVLELADRFLLIRLKEFCGEFLKKKLHLSNCVAIHSLAHMYTLSQLALKAADMIRRNFHKVIQDEEFYTLPFHLIRDWLSDLEITVDSEEVLFETVLKWVQRNAEERERYFEELFKLLRLSQMKPTYLTRHVKPERLVANNEVCVKLVADAVERHALRAENIQSGTCQHPTSHVSLLPRYGQNMDVIMVIGGVSEGGDYLSECVGYFVDEDRWVNLPHIHNHLDGHAVAVTESYVYVAGSMEPGFAKTVERYNPNLNTWEHVCSLMTRKHSFGLTEVKGKLYSIGGHGNFSPGFKDVTVYNPELDKWHNLESAPKILRDVKALAIEDRFVYIAARTPVDRDTEDGLKAVITCYDTETRQWQDVESLPLIDNYCFFQMSVVNSNFYQTASCCPKSYCLENEEAVRKIASQVSDEILESLPPEVLSIEGAAICYYKDDVFIIGGWKNSDDIDKQYRKEAYRYCAERKRWMLLPPMPQPRCRATACHVRIPYRYLHGTQRYPMPQNLMWQKDRIRQMQEIHRHALNMRRVPSSQIEC
As for B2, the binding entry (in test [2]; in test [3]; in test [4]; with GFP-tagged LNX2 (mouse)) was “binds” throughout.

B3: Kinesin-like protein KIF7, endogenous (protein, UniProt Q2M1P5 1-1343)
chain: MGLEAQRLPGAEEAPVRVALRVRPLLPKELLHGHQSCLQVEPGLGRVTLGRDRHFGFHVVLAEDAGQEAVYQACVQPLLEAFFEGFNATVFAYGQTGSGKTYTMGEASVASLLEDEQGIVPRAMAEAFKLIDENDLLDCLVHVSYLEVYKEEFRDLLEVGTASRDIQLREDERGNVVLCGVKEVDVEGLDEVLSLLEMGNAARHTGATHLNHLSSRSHTVFTVTLEQRGRAPSRLPRPAPGQLLVSKFHFVDLAGSERVLKTGSTGERLKESIQINSSLLALGNVISALGDPQRRGSHIPYRDSKITRILKDSLGGNAKTVMIACVSPSSSDFDETLNTLNYASRAQNIRNRATVNWRPEAERPPEETASGARGPPRHRSETRIIHRGRRAPGPATASAAAAMRLGAECARYRACTDAAYSLLRELQAEPGLPGAAARKVRDWLCAVEGERSALSSASGPDSGIESASVEDQAAQGAGGRKEDEGAQQLLTLQNQVARLEEENRDFLAALEDAMEQYKLQSDRLREQQEEMVELRLRLELVRPGWGGPRLLNGLPPGSFVPRPHTAPLGGAHAHVLGMVPPACLPGDEVGSEQRGEQVTNGREAGAELLTEVNRLGSGSSAASEEEEEEEEPPRRTLHLRRNRISNCSQRAGARPGSLPERKGPELCLEELDAAIPGSRAVGGSKARVQARQVPPATASEWRLAQAQQKIRELAINIRMKEELIGELVRTGKAAQALNRQHSQRIRELEQEAEQVRAELSEGQRQLRELEGKELQDAGERSRLQEFRRRVAAAQSQVQVLKEKKQATERLVSLSAQSEKRLQELERNVQLMRQQQGQLQRRLREETEQKRRLEAEMSKRQHRVKELELKHEQQQKILKIKTEEIAAFQRKRRSGSNGSVVSLEQQQKIEEQKKWLDQEMEKVLQQRRALEELGEELHKREAILAKKEALMQEKTGLESKRLRSSQALNEDIVRVSSRLEHLEKELSEKSGQLRQGSAQSQQQIRGEIDSLRQEKDSLLKQRLEIDGKLRQGSLLSPEEERTLFQLDEAIEALDAAIEYKNEAITCRQRVLRASASLLSQCEMNLMAKLSYLSSSETRALLCKYFDKVVTLREEQHQQQIAFSELEMQLEEQQRLVYWLEVALERQRLEMDRQLTLQQKEHEQNMQLLLQQSRDHLGEGLADSRRQYEARIQALEKELGRYMWINQELKQKLGGVNAVGHSRGGEKRSLCSEGRQAPGNEDELHLAPELLWLSPLTEGAPRTREETRDLVHAPLPLTWKRSSLCGEEQGSPEELRQREAAEPLVGRVLPVGEAGLPWNFGPLSKPRRELRRASPGMIDVRKNPL
Turning to B3, the binding entry in test [2] is recorded as “binds”; in test [3], “binds”; in test [5], “binds”; in test [4], “binds”; with GFP-tagged LNX2 (mouse), “no binding”.
